{"source": "paper PMC4336329", "about": "(PLoS ONE, 2015)", "note": "The campaign covered roughly 310,000 compounds. About 2,200 (0.71%) showed an effect of 50% or more. Effects have a minus sign here. Some of the results follow."}
{"molecular_target": "human ether-à-go-go-related gene (hERG) potassium channel (human, UniProt Q12809)", "sequence (Q12809 whole entry, looked up)": "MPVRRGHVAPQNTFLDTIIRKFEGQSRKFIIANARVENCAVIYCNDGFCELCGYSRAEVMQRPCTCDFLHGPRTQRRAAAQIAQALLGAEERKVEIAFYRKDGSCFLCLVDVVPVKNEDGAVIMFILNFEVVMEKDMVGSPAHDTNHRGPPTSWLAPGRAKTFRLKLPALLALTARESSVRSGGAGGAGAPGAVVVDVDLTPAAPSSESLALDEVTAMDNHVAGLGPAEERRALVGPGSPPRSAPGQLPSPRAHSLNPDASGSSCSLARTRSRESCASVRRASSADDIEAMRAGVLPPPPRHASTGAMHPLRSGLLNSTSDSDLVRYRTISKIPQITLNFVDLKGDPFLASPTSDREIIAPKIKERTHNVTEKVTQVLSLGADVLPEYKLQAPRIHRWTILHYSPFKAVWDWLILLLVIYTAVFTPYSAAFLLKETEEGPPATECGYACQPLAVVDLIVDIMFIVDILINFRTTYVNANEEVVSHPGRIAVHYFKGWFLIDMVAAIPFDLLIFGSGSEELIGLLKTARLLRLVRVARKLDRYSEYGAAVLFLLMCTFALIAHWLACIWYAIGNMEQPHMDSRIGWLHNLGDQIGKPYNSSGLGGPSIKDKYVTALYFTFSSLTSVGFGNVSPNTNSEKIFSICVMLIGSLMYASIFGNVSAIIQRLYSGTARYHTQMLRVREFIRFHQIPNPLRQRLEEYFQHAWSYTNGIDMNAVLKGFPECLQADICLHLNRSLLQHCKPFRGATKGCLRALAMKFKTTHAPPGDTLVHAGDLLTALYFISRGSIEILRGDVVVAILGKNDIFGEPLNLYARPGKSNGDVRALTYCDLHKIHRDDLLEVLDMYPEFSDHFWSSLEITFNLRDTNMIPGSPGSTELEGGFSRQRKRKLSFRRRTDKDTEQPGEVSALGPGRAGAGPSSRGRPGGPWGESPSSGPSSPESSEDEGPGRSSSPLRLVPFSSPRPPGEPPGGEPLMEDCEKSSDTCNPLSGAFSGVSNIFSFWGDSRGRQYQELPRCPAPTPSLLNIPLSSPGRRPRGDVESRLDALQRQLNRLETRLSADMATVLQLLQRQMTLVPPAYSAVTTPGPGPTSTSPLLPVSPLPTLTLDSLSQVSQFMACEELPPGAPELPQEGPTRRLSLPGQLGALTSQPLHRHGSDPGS", "experiment": "primary screen, population patch clamp on CHO cells stably expressing hERG", "units": {"hERG current change (%, negative = inhibition) at 1uM": "%"}}
{"compound": "NC(=O)C1(N2CCCCC2)CCN(C(=O)NC23CC4CC(CC(C4)C2)C3)CC1", "hERG current change (%, negative = inhibition) at 1uM": -7.69}
{"compound": "CC1CCN(C(=O)c2[nH]cnc2C(=O)N(C)Cc2ccccc2)CC1", "hERG current change (%, negative = inhibition) at 1uM": 15.3}
{"compound": "CCOC(=O)N/N=C(\\C)c1ccccc1OC(F)F", "hERG current change (%, negative = inhibition) at 1uM": 9.71}
{"compound": "COc1ccc(N(CC(=O)Nc2cc(C(=O)O)ccc2C)S(=O)(=O)c2c(C)noc2C)cc1", "hERG current change (%, negative = inhibition) at 1uM": -12.7}
{"compound": "COCCCNC(=O)c1ccc2c(=O)n(C3CCCC3)c(=S)[nH]c2c1", "hERG current change (%, negative = inhibition) at 1uM": -1.77}
{"compound": "Cc1ccc(C)c(S(=O)(=O)N2CCCOC2CNC(=O)C(=O)NCc2ccccn2)c1", "note": "(centres unmarked)", "hERG current change (%, negative = inhibition) at 1uM": 4.78}
{"compound": "I.c1ccc(Sc2cccc3ccccc23)c(CNC2=NCCN2)c1", "hERG current change (%, negative = inhibition) at 1uM": -2.32}
{"compound": "CCOc1cc(/C=C/C(=O)c2ccc(OC)c(CN3CCOCC3)c2)cc(Br)c1O", "hERG current change (%, negative = inhibition) at 1uM": 2.82}
{"compound": "COC(=O)c1ccc(NC(=O)C2CCCN2C(=O)OCc2ccccc2)cc1", "note": "(centres unmarked)", "hERG current change (%, negative = inhibition) at 1uM": 11.2}
{"compound": "CC(C)(C)NC(=O)C[n+]1ccc(C(N)=O)cc1.[Cl-]", "hERG current change (%, negative = inhibition) at 1uM": 8.64}
{"compound": "Nc1c(C(=O)Nc2ccccc2)sc2nc(-c3ccco3)ccc12", "hERG current change (%, negative = inhibition) at 1uM": 14.6}
{"compound": "O=C(Nc1ccncc1)Nc1cccc(Cl)c1Cl", "hERG current change (%, negative = inhibition) at 1uM": 13}
{"compound": "COC(=O)[C@H](CC(C)C)NC(=O)CCc1nnc(COc2ccccc2)o1", "hERG current change (%, negative = inhibition) at 1uM": 19.8}
{"compound": "Cc1ccc2c(c1)C(c1ccc(F)cc1)N(C(=O)c1ccc(S(=O)(=O)N(C)C)cc1)CC(=O)N2", "note": "(centres unmarked)", "hERG current change (%, negative = inhibition) at 1uM": 8.73}
{"compound": "CS(=O)(=O)N1CCN(C(=O)CCc2ccccc2)CC1", "hERG current change (%, negative = inhibition) at 1uM": 13.4}
{"compound": "CS(=O)(=O)c1ccc2nc(NC(=O)c3cccs3)sc2c1", "hERG current change (%, negative = inhibition) at 1uM": -9.29}
{"compound": "Cc1ocnc1C(=O)Nc1ccc(Cl)cc1", "hERG current change (%, negative = inhibition) at 1uM": 6.22}
{"compound": "O=C1[C@H]2[C@@H](c3ccc(F)cc3)N3C(=O)N(c4cccc(Cl)c4)C(=O)[C@@]3(Cc3ccc(Cl)cc3)[C@H]2C(=O)N1C1CCCCC1", "hERG current change (%, negative = inhibition) at 1uM": 13.8}
{"compound": "O=C(Nc1nccs1)c1ccc(Cl)c(S(=O)(=O)N2CCOCC2)c1", "hERG current change (%, negative = inhibition) at 1uM": -0.0249}
{"compound": "CC(C)(C)CN1CCN(Cc2cccnc2)CC1CCO", "note": "(centres unmarked)", "hERG current change (%, negative = inhibition) at 1uM": 12}
{"compound": "COC(=O)c1ccc(NC(=O)Nc2cccc(F)c2)cc1", "hERG current change (%, negative = inhibition) at 1uM": 8.87}
{"compound": "COc1ccc(OC)c(C(c2nnnn2CCc2ccccc2)N2CCC(C(N)=O)CC2)c1", "note": "(centres unmarked)", "hERG current change (%, negative = inhibition) at 1uM": 2.91}
{"compound": "O=C(NNC(=O)c1ccccc1O)c1ccc(S(=O)(=O)Nc2ccccc2F)cc1", "hERG current change (%, negative = inhibition) at 1uM": 1.09}
{"compound": "COC(=O)c1ccc(CNC(=O)COC(=O)C2CCC(C(C)(C)C)CC2)cc1", "note": "(centres unmarked)", "hERG current change (%, negative = inhibition) at 1uM": 7.94}
{"compound": "N=C1C(c2ccccc2)=C(O)CN1c1ccc2c(c1)OCO2", "hERG current change (%, negative = inhibition) at 1uM": 12.8}
{"compound": "CC(OC(=O)CCCOc1ccccc1)C(=O)Nc1ccc(Cl)cn1", "note": "(centres unmarked)", "hERG current change (%, negative = inhibition) at 1uM": 8.95}
{"compound": "CN(CCc1cn[nH]c1)C(=O)CC1C(=O)NCCN1Cc1cccc(Oc2ccccc2)c1", "note": "(centres unmarked)", "hERG current change (%, negative = inhibition) at 1uM": 13.1}
{"compound": "COC(=O)Cc1c(C(=O)OC)nnn1-c1ccc(OC(F)(F)F)cc1", "hERG current change (%, negative = inhibition) at 1uM": 14.3}
{"compound": "CC(=O)NCC1CCCN(C(=O)c2oc3c(F)cccc3c2C)C1", "note": "(centres unmarked)", "hERG current change (%, negative = inhibition) at 1uM": 16.6}
{"compound": "COc1ccccc1NC(=O)CSc1nc(=O)n(CCN2CCOCC2)c2c1CCC2", "hERG current change (%, negative = inhibition) at 1uM": 4}
{"compound": "COc1ccc(CCNC(=O)C(=O)NCC2OCCN2S(=O)(=O)c2ccc(Cl)cc2)cc1", "note": "(centres unmarked)", "hERG current change (%, negative = inhibition) at 1uM": 6.15}
{"compound": "Cc1ccc(C(=O)NNC(=O)c2cccc(Br)c2)cc1", "hERG current change (%, negative = inhibition) at 1uM": 1.59}
{"compound": "COC(=O)c1ccc(NC(=O)CC(=O)Nc2ccc(C(=O)OC)cc2)cc1", "hERG current change (%, negative = inhibition) at 1uM": 12.3}
{"compound": "Cc1ccc(C(CNC(=O)Nc2ccc(Cl)cc2)N2CCN(C)CC2)cc1", "note": "(centres unmarked)", "hERG current change (%, negative = inhibition) at 1uM": -41.4}
{"compound": "COc1ccc(NS(=O)(=O)c2ccc(Oc3c(C#N)cccc3C#N)cc2)cc1", "hERG current change (%, negative = inhibition) at 1uM": 8.49}
{"compound": "O=C(c1ccc(Cl)c(S(=O)(=O)N2CCCCCC2)c1)N1CCCC(C(F)(F)F)C1", "note": "(centres unmarked)", "hERG current change (%, negative = inhibition) at 1uM": -2.82}
{"compound": "CCOC(=O)c1cc(NCc2cccs2)ccc1N1CCOCC1", "hERG current change (%, negative = inhibition) at 1uM": 4.02}
{"compound": "CN(Cc1ccco1)C(=O)c1cc2c(s1)-c1ccc(Cl)cc1S(=O)(=O)C2", "hERG current change (%, negative = inhibition) at 1uM": 8.2}
{"compound": "C/C(N)=C(/C#N)C(=O)COC(=O)C(NS(=O)(=O)c1ccc(Cl)cc1)C(C)O", "note": "(centres unmarked)", "hERG current change (%, negative = inhibition) at 1uM": 12.2}
{"compound": "CCN1CCN(C(=O)c2cc(COc3ccc(C(C)=O)cc3OC)on2)CC1", "hERG current change (%, negative = inhibition) at 1uM": 8.14}
{"compound": "O=C(NCCN1CCOCC1)c1ccccc1N1C(=O)[C@@H]2Cc3c([nH]c4ccccc34)C(c3ccccc3)N2C1=O", "note": "(some centres unmarked)", "hERG current change (%, negative = inhibition) at 1uM": -4.5}
{"compound": "Cc1c(NC(=O)COC(=O)CCC(=O)c2ccc(Cl)cc2)c(=O)n(-c2ccccc2)n1C", "hERG current change (%, negative = inhibition) at 1uM": 9.62}
{"compound": "COc1ccc(Oc2cnn(-c3ccccc3)c(=O)c2Br)cc1", "hERG current change (%, negative = inhibition) at 1uM": 8.31}
{"compound": "CCCc1[nH][nH]c(=O)c1C(c1ccccc1)C(C#N)C#N", "note": "(centres unmarked)", "hERG current change (%, negative = inhibition) at 1uM": -5.33}
{"compound": "CCc1nnc(NC(=O)Cn2nc(-c3ccc(OC)c(OC)c3)ccc2=O)s1", "hERG current change (%, negative = inhibition) at 1uM": 4.12}
{"compound": "Cc1ccc2cc(CCNC(=O)c3ccc(S(=O)(=O)N4CCCCC4)cc3)c(=O)[nH]c2c1", "hERG current change (%, negative = inhibition) at 1uM": 9.32}
{"compound": "COC(=O)[C@H](Cc1ccccc1)NC(=O)[C@@H]1C[C@H]1[C@@H](NC(=O)OCc1ccccc1)c1ccccc1", "hERG current change (%, negative = inhibition) at 1uM": 2.84}
{"compound": "COc1ccc(-c2cc(=O)c3cc(OC)ccc3[nH]2)cc1", "hERG current change (%, negative = inhibition) at 1uM": 3.34}
{"compound": "Cc1ccc(S(=O)(=O)N(C)c2ccc(C(=O)NCc3cccnc3)cc2)cc1", "hERG current change (%, negative = inhibition) at 1uM": 4.98}
{"compound": "CSCCC(N=Cc1c(O)n(-c2ccc(Cl)cc2)c(=O)[nH]c1=O)C(=O)OC(C)(C)C", "note": "(centres unmarked)", "hERG current change (%, negative = inhibition) at 1uM": -0.641}
{"compound": "COC(=O)c1c(C(=O)OC)c2ccncn2c1Cl", "hERG current change (%, negative = inhibition) at 1uM": 12.8}
{"compound": "Cc1ccc2oc(-c3cccc(NC(=O)c4ccc(Br)o4)c3C)nc2c1", "hERG current change (%, negative = inhibition) at 1uM": 3.74}
{"compound": "CN(C)c1ccc(/C=N/N=C2/NC(=O)/C(=C/c3ccc([N+](=O)[O-])cc3)S2)cc1", "hERG current change (%, negative = inhibition) at 1uM": 8.91}
